According to the supplement of paper PMC11417369:
The other results are listed elsewhere or left out.

What follows are sequences tested on PfHDP1 homeodomain (GST-tagged) (assay: gcPBM binding intensity (ln(normalized median fluorescence intensity)); higher = stronger DNA binding).
Method in brief: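 Binding intensity is defined as the maximum Masliner-normalised natural-log median intensity across replicate spots for either probe orientation. It was measured on an Agilent 4 × 180k array of primer-extended double-stranded 36-bp intergenic genomic probes and negative controls, to which GST-tagged P. falciparum DNA-binding domains made in E. coli were applied for 1 h in 1× PBS with 1% milk, 0.2 mg/ml BSA, 0.5% salmon testes DNA and 0.03% Triton X-100. Detection was by Alexa488 anti-GST antibody and scanning at 488 nm.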

First: TGAAATTTCAATACATGTACATATAAAAAAAAAAAA [XGTACX_site4424]
Second: ATGTTTTTTATTCTTCGTACGTATGAACGATAGTGT [XGTACX_site4225]
The “gcPBM binding intensity (ln)” value of the first is higher: 6.83 for the first, 6.71 for the second.

Compared with “CATTATTATTTTATAACACACACATATATATTATAT [CACACA_site8405]”, “TATAAAATAAGACATGCATGTTATACATATATATTT [TGCATGCA_site156]” is lower in “gcPBM binding intensity (ln)” value: 6.75 for the first, 6.51 for the second.

Going from “AAACGTATGTTATTTACACACCCTTCCACTTTTATA [CACACA_site3337]” to “TTTGTGTATATATAATGTACATTATATTTTTATTAT [XGTACX_site6506]”, the “gcPBM binding intensity (ln)” value rises from 6.66 to 7.35.

Going from “AAAAAAAATATACATACATGCATACATAAGTTTCTA [TGCATGCA_site998]” to “TATATATATGGACACACACACACATATATATATATA [CACACA_site6121]”, the “gcPBM binding intensity (ln)” value rises from 6.12 to 9.18.

Compared with “ATTAAAAAAAAAGAGCGTACAAATAATTACTTCTTT [XGTACX_site8262]”, “TATAAATTTATAAATAGTACATATATTTATATATAT [XGTACX_site6433]” is higher in “gcPBM binding intensity (ln)” value: 6.04 for the first, 6.54 for the second.

First: AAAAAAAAAAAAATTACACACATACATATAATAATA [CACACA_site8680]
Second: ATATTAAGAATAAACAGTACATATAATAAATACCAT [XGTACX_site5933]
The “gcPBM binding intensity (ln)” value of the first is lower: 6.41 for the first, 6.6 for the second.

First: GGGTATATATTATTATGTACACATGTATAAAATAAG [XGTACX_site2633]
Second: ATATTACATAATATATGTACACACGCAAATACTTAT [XGTACX_site671]
The “gcPBM binding intensity (ln)” value of the first is lower: 6.59 for the first, 6.82 for the second.

First: CAGATAGACTTATATGCATGCATTCACCTGCCAACA [TGCATGCA_site158]
Second: ATGAAATTATATTGGGGTACGTCAAAAAAGGAGATA [XGTACX_site7451]
The “gcPBM binding intensity (ln)” value of the first is lower: 6.9 for the first, 7.14 for the second.

Going from “TAAGCATAAATGTATACATGCGATGCATACACATAT [TGCATGCA_site749]” to “TAAATAATATAATTATGTACGTATTTCTTTATTTTA [XGTACX_site8410]”, the “gcPBM binding intensity (ln)” value falls from 6.75 to 5.94.

Compared with “GCTGAAAATAAATGAAGTACACAAGTAATATATATA [XGTACX_site6205]”, “TTTTTTTTTTAATTAACACACATAAATATAAATATA [CACACA_site7527]” is lower in “gcPBM binding intensity (ln)” value: 7.12 for the first, 6.37 for the second.

Compared with “AAAAAAAAAAAAAAAAGTACATATGCTCAAGAGATG [XGTACX_site3783]”, “TATATATATATATATACATGCATCATTGTTCACCTT [TGCATGCA_site177]” is higher in “gcPBM binding intensity (ln)” value: 7.4 for the first, 9.22 for the second.

Compared with “TAATATTGACTATATACACACATATAAATATAAATA [CACACA_site6414]”, “CATTCAAAGAAAAACAGTACGTGTAGCAAAAGGCCT [XGTACX_site266]” is higher in “gcPBM binding intensity (ln)” value: 6.53 for the first, 7.27 for the second.

Going from “GAAAAAAGAAATTTATGTACATACATATATATATAT [XGTACX_site7888]” to “ATATGTAAAATATGGGGTACGAAGGTAGGTAGGTAA [XGTACX_site1392]”, the “gcPBM binding intensity (ln)” value falls from 9.1 to 7.59.

First: TAAGCCACCATATTTACACACACATCAAAATGTATT [CACACA_site1815]
Second: ATTCTATATGTTACATAAACCTATATTTTTTTTTTT [CACACA_negctrl_site860]
The “gcPBM binding intensity (ln)” value of the first is lower: 6.65 for the first, 6.88 for the second.

Going from “ATAAAGCCATACAATACACACATTTTACATGTCGGT [CACACA_site3265]” to “ATATATATATATATGTGTACATATTAGTGATATAAT [XGTACX_site7161]”, the “gcPBM binding intensity (ln)” value rises from 6.43 to 9.28.

Going from “AATGCGCATTTTTTTTTTTTTTTTTTTTTTTTTTTT [XGTACX_negctrl_site258]” to “TATAAATATAAATACTGTACATTATATTATATAATA [XGTACX_site2480]”, the “gcPBM binding intensity (ln)” value falls from 7.42 to 6.26.

First: CGTTACACAAAAATATGTACATATATACATATATAT [XGTACX_site4631]
Second: TAAAAATAATATTAATGTACATTACATATTAATATA [XGTACX_site1019]
The “gcPBM binding intensity (ln)” value of the first is higher: 6.83 for the first, 6.35 for the second.

Compared with “TATTCCCCCAAACACACACACACACCCACATACCAC [CACACA_site2304]”, “TTGTATTTACTATACACACACATACATACATACATA [CACACA_site4603]” is lower in “gcPBM binding intensity (ln)” value: 7.16 for the first, 6.91 for the second.

Compared with “AATGGGATCATGGTATGTACTTACACAAATGAATTA [XGTACX_site5389]”, “TGAATAAAATATTATACACACATATGTATTTAACAT [CACACA_site4694]” is higher in “gcPBM binding intensity (ln)” value: 6.32 for the first, 6.61 for the second.

Compared with “ATCATTTAAACAATATGTACTCATTGTAGATATGGT [XGTACX_site5088]”, “AATATAAATGTGATTACACACAACAGATTTAAATGG [CACACA_site4802]” is higher in “gcPBM binding intensity (ln)” value: 6.54 for the first, 6.56 for the second.

Going from “TTATTTTTTAATTATATTCAAAATTAAAAAAAAAAA [XGTACX_negctrl_site226]” to “ATTAAAAAAAAAAAAAAAAAAAAAAAAAAAAAAAAA [CACACA_negctrl_site1060]”, the “gcPBM binding intensity (ln)” value rises from 5.95 to 6.3.

First: ATTGATAAATTAACTAGTACACATATAAATATATTA [XGTACX_site2325]
Second: TATACGTGTTTTATTTGTACTTAAGCAGGTAAGCAT [XGTACX_site193]
The “gcPBM binding intensity (ln)” value of the first is lower: 6.21 for the first, 6.39 for the second.

Compared with “CTATATATTTTTTCTTAACACACATATATAAAATAA [CACACA_site9165]”, “TATATTTATTTTCTGTGTACACATATGTTGTGTATT [XGTACX_site7640]” is higher in “gcPBM binding intensity (ln)” value: 6.64 for the first, 7.98 for the second.

Compared with “TATATGTATCCATTATGTACATAATAGTAATATAAT [XGTACX_site4008]”, “TAAAAAATACAAGAGTGTACAAAATTTTTCTAAATG [XGTACX_site5334]” is lower in “gcPBM binding intensity (ln)” value: 6.66 for the first, 6.58 for the second.

First: AAAACCTAGTGCATTTGTACATATTTCAATTTTAAA [XGTACX_site4582]
Second: TTTAAATACAGACATACACACATACACGCACATATA [CACACA_site6400]
The “gcPBM binding intensity (ln)” value of the first is higher: 8.64 for the first, 7.32 for the second.

First: TATATTTTTATTGAACGTACAAAAAGTCGAAAACAG [XGTACX_site3967]
Second: AGGTAGAAATTGTTAAAAAATCATACATATTATATA [CACACA_negctrl_site622]
The “gcPBM binding intensity (ln)” value of the first is higher: 6.66 for the first, 6.01 for the second.

Compared with “GTTAATTCTATGAATTGTACTTAAATATAATTATAT [XGTACX_site2785]”, “ATAAATACTAAAAATGAAATATAGAAAATAGCAATA [CACACA_negctrl_site501]” is higher in “gcPBM binding intensity (ln)” value: 6.2 for the first, 6.72 for the second.

Compared with “TATAATATATTATATACACACATTATAAAATACCCA [CACACA_site4858]”, “ACAGTTAAAACAATAACACACAAAGAAAAAAAAAAA [CACACA_site737]” is lower in “gcPBM binding intensity (ln)” value: 6.77 for the first, 6.15 for the second.
